Data taken from the RNAGym collection of RNA variant scans (doi:10.1073/pnas.2313332121).
Variants at the floor of the assay are shown more often than the library holds them.

B1: TPR 5TU (parent)
chain: GGAUCUUCUCGAUCUAACAAAAAAGACAAAUCUGCCACAAAGCUUGAGAGCAUCUUCGGAUGCAGAGGCGGCAGCCUUCGGUGGCGCGAUAGCGCCAACGUUCUCAACUAUGACACGCAAAACGCGUGCUCCGUUGAAUGGAGUUUAUCAUG

Variants of: B1
Assay: polymerase ribozyme fitness, log enrichment relative to wild type (log ratio); higher = more active; in vitro selection for triplet polymerase activity
Summary of the method: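 Input and output libraries were sequenced on Illumina after a single in vitro selection round, run in triplicate on PCR-built, transcribed mutant libraries of each subunit of a heterodimeric triplet polymerase ribozyme. Selection annealed libraries to a biotinylated primer, the partner subunit and triplets, incubated them frozen at −7 °C, then gel-excised extended constructs for streptavidin-bead capture and RT-PCR. Genotypes with ≥10 input reads and ≥1 read per output were kept. Fitness is the logarithm, taken in base 2, of genotype enrichment divided by wild-type enrichment, using inverse-variance-weighted replicate averages.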

Variant	polymerase ribozyme fitness (log ratio)
U13A C36A G92C A97U	≤ -4.2
U13A A24U C87A C123A	≤ -4.2
U13C C43A A60G C85U U148C	≤ -4.2
U13G C27A U44C C76U C93U G136A	≤ -4.2
U13G A20U C43A C116A C118U C125U G140C	≤ -4.2
U13C C57A G58A A66G U82G C116U	≤ -4.2
U13A C51U C72U G84U A106G A121U C123A A138C	≤ -4.2
U13G A24U U33G U53A U55A G84U	≤ -4.2
A12U A26U A29U A60G G86A	≤ -4.2
U13C A16U A30C U45A A52C C85U A107C U135G	≤ -4.2
A12U A19U A40G C43G G70U U130A U135G U144C A147U	≤ -4.2
A12U A47G C76A C85G A150U	≤ -4.2
U13G U15A C51U C96A A121G	-2.76
U13G A39C A89C A97G C114A C123U G141C	≤ -4.2
A12U A37U G42U A49G U56A G80C G92U C105A U145C A150C	≤ -4.2
A12U A22C U90G C95A A110U G141C U146C G152A	≤ -4.2
A12U A24U C43A G46A U53A U55A C57U A60G G80U C93G	≤ -4.2
U13C A26U A52C U55A G88A A89C C99U U135G A142U	≤ -4.2
A12U C14G A29C C32U U45A G80C	≤ -4.2
U13G C54A C95A A113C U139G U151G	≤ -4.2
U13G G34A G86A U101C C103U U127C	≤ -4.2
U13C A40C G48U G81C U145C U148A	≤ -4.2
U13G A47C G67C U78G C93A C99G U104G A110G G112A G133U	≤ -4.2
U13G C36G A41U G50A G83A G86U C95U A113U	≤ -4.2

Variant	polymerase ribozyme fitness (log ratio)
A12U C18U A41G G62A A64G U102A A107C C108U G152U	≤ -4.2
A12U U53A C72A C87U U139A G152A	≤ -4.2
A12U A89C G128A U130G U134C	≤ -4.2
U13G A37G G59A A60G U90A C93G U139C G141U G143A	≤ -4.2
A12U G34C G46A G83A A121U G141U	≤ -4.2
U13A C54G G68A C75G C76G U90G C95G A119U	≤ -4.2
U13G A24U U56A G59A A66G U146G	≤ -4.2
A12U U15A A24C G70A A110G A122C	≤ -4.2
A12U G84C C93U G140A	≤ -4.2
U13G A20U A22G A28C C85G	≤ -4.2
A12U A37C G59A C95G U102G A137U	≤ -4.2
U13C A19U A47G U56A C129A U144A	≤ -4.2
A12U C85U C87G C118U C132G U144G	≤ -4.2
U13A G42U U55A C57A G59A A60C G92A C103A	≤ -4.2
A12U C27U A29U G84U G92A	≤ -4.2
U13C C27U U53A U55G U56A G62A G88C A113U A115G	≤ -4.2
U13G C54A G58C	≤ -4.2
U13G A23U A29G C36G A41C	≤ -4.2
A12U A28G A40G G46U C93G C95G A137C	≤ -4.2
A12U A20G G88U A98G A106G C131G	≤ -4.2
A12U C14U A23C A28U C96U G100A A115U	≤ -4.2
U13G A16C A21U G50C A73G C103U	≤ -4.2
A12U C35A C38U U90G G92A G140U U151A	≤ -4.2
U13G A22G C38U A39U A40U C93U	≤ -4.2

Variant	polymerase ribozyme fitness (log ratio)
A12U A19U A22C A60C A73G C93U	≤ -4.2
A12U C38U U61A A73U G88U C95G C114G	≤ -4.2
U13C C27U U61A C85G A120C C125G	≤ -4.2
U13A A17G G48A A66C G84U G112U	≤ -4.2
U13C U15G A29C C43U G92U A120C G126A G133U A142U	≤ -4.2
A12U U31A U44A U53A A66C C75G C93G	≤ -4.2
A12U C51U A64U A89G G94C A110C A147C	≤ -4.2
A12U U53A C57U C93U U111G G112C G136A U146A	≤ -4.2
A12U A17U C18U A29U C38G A40C A52C C57U G83A U90G A97U U135C	≤ -4.2
A12U A22C A26C A28G U56A A66C C95U C114U	≤ -4.2
A12U A17C A24C G68A	≤ -4.2
A12U A30C G86A	≤ -4.2
U13C A37C A39U A47C C54U C85U A121G U127G	≤ -4.2
U13G A49U A60G C75U C76A C85G A91G	≤ -4.2
U13G U15C A41C A64U G71A C116G G136A	≤ -4.2
U13C C27A C69U U78C C87U U101C U135C G141U	≤ -4.2
U13G G58C A60U C76U U139G U145A	≤ -4.2
U13C C14G U33C A47G U55G G136A	≤ -4.2
U13C A52C U55A G92U C93A A113U	≤ -4.2
A12U A26U C27U A52C G65A G133A	≤ -4.2
A12U U45G A52G U77G C85U U146G	≤ -4.2
U13A C18U C51U A52U G74U U82A G117A A120C A150U	≤ -4.2
U13A C27G C96U G141U	≤ -4.2
U13G A19C A37C U44A U82A C96A G152U	≤ -4.2

Variant	polymerase ribozyme fitness (log ratio)
U13A A20U A29C G74A G117A G124C	≤ -4.2
A12U A28U A89U A120C	≤ -4.2
A12U A40C G46U G58A G88U C99G U151A	≤ -4.2
U13A G50C C76G C79G U90A G92C U134G	≤ -4.2
A12U C57U G86U C96U A107U A113C C114U A121U G140A A150G	≤ -4.2
U13G C27G A39C U90G C95U	≤ -4.2
U13A A26U C27U C36A U56C	≤ -4.2
U13C A66U G88A A91U	≤ -4.2
U13A G67A G81C U90C G152A	≤ -4.2
U13C A20C G83U C85A C93A	≤ -4.2
U13G C76A C96U C131U U148G	≤ -4.2
U13G A30U G67A A73U U90C	≤ -4.2
A12U G58U A60U G86C A107U G133U C149G	≤ -4.2
A12U G92U C125U	-1.06
U13G A19C A29G G50C U127C	≤ -4.2
U13C G50U G59A U82C A121U G136A	-1.14
U13A U15C C87A A98U U111A	≤ -4.2
U13C A17G A49C C54A G65C G83A G86A U104C G124U G128U	≤ -4.2
U13G C36G U45G A66U G94U A121C U127A	≤ -4.2
U13G A17C A29U G83C C95U A119G A120G A147U	≤ -4.2
A12U G50C C76A G92U	≤ -4.2
U13G C38U G88A U101A G124U	≤ -4.2
U13A A110G	≤ -4.2
U13G A40U G74A C87A G94C	≤ -4.2

Variant	polymerase ribozyme fitness (log ratio)
U13G A21C C27A U55A C99A C103G	≤ -4.2
A12U A20G A21C U31A C35G G86U A91G A119U G128C	-3.91
A12U C14A G42A C96G U111G A122U	≤ -4.2
A12U U53A G141U	-1.08
U13A A20C U78A A89U A91U A137G	≤ -4.2
A12U G46C A52G G65U C69U U90C A142G	≤ -4.2
U13G A29G A89U U104G A106C A113U	≤ -4.2
U13G C79A C103U	≤ -4.2
U13G C27G U44A A47U G86A C99A U104C A142C	≤ -4.2
U13G A60C C85G C116U	≤ -4.2
U13G G25A G83A	-4.07
U13C G88A C99G	-4.01
U13G A40U U45G U56A C72U C87G U130G	≤ -4.2
U13G A21C C54G C75A U82A A119U C131G	≤ -4.2
A12U G50C G62A A64C G65C G88U C95U C118U G141C	≤ -4.2
A12U A17U U33A A91G C118G C123U	≤ -4.2
A12U A39G A47U C54G C75U G92C	≤ -4.2
A12U C35G C93G U109G	≤ -4.2
U13A U53A C63G A97U U102G A142C	≤ -4.2
U13C G68A C85A G92A G126A G140A A142C	≤ -4.2
A12U A23C G88A	≤ -4.2
A12U A21C A23U A37U A64C	≤ -4.2
A12G U45A C57G U78A G80U C103A C118G	≤ -4.2
U13C C32U G58C G67A C95A C116G C149U	≤ -4.2

Variant	polymerase ribozyme fitness (log ratio)
U13C C57U G67C G71A A106G A110U U134A	≤ -4.2
U13C C54G C95G C108G C129A	≤ -4.2
U13C A49G G59U G92C C108U A138U A142C G143U	≤ -4.2
U13C C14U G71A G81C C103A U109A	≤ -4.2
U13A C32G A60G C75A C79A A120G	≤ -4.2
A12U U90A A147C	≤ -4.2
A12U C57G U61G G65U G94U A107C	≤ -4.2
A12U A52G C96U A120C G152U	≤ -4.2
A12U A49C U55A A66U C72A C85U	≤ -4.2
U13G A22G A24U A28G C76U U78A C79G G81A U102G C114A	≤ -4.2
U13G A29U G65C A66G G88A A91C C103G A110C C132U	≤ -4.2
U13C A28C C32U A49C G50A A91U G94A	≤ -4.2
A12U C35G U53G A66U A73G C85A C95G	≤ -4.2
A12U U55A C57G C103A G128U A147C	-4.11
A12U A29G C96A C116G A121G C149G	≤ -4.2
A12U C95U A97U C99U G133U A150G	≤ -4.2
A12U C51G G88C C108G G117C	≤ -4.2
A12U C32G A91G	≤ -4.2
A12U A39U U55A G68A C96U U145G	≤ -4.2
U13A A19U U44G G59C C93A C105U	≤ -4.2
A12U A37G C87A G92U C96G C99A U104C A150G	≤ -4.2
A12U A47C A52C U56G A64C G86A A89G C99U	≤ -4.2
U13A C27G U82G U151C	≤ -4.2
A12G U33A A49G A64G G65U G67U G81U G86A C105U	≤ -4.2

Variant	polymerase ribozyme fitness (log ratio)
A12U C85A U135G	≤ -4.2
U13A A40G U77A C87G C99G G117U	≤ -4.2
A12U A29U A52C G92U	≤ -4.2
A12G U61G C85G C105G G117C	≤ -4.2
U13G C36G C57U C87U U90G A110C A115U G124C C149G	≤ -4.2
A12U A22U C32G C54U C57A	≤ -4.2
U13A U61A C96U C108A	≤ -4.2
U13G A39C G42A A49G U55A A60U U61G A64G A107U A115U A121U U135A	≤ -4.2
U13C A16C A23U A29U A60C C76U	≤ -4.2
A12G U55A C76A C93A A120G	-3.73
A12U A17C C69U U77G C93U A107G U139A	≤ -4.2
A12U U45A G83U G126U	≤ -4.2
A12U A21G C43U G50A U77C C149A	≤ -4.2
A12U C54U G58C G68C C79U A91U	≤ -4.2
U13C A17C A30C C35U C51A C75G C95G A106U U146A C149U	≤ -4.2
U13A C51U G65U U82A G84U A119U G140C	≤ -4.2
U13A A22U A41C U53G	-2.31
U13G G86U	-3.56
U13G C18A A21C A40G A41C G58U C69U C79G G92C	≤ -4.2
A12U G25U C63G C76G C87A A150C	≤ -4.2
A12U U56A C63G G74C C93A	≤ -4.2
A12U C27U G50A C76G	≤ -4.2
A12U C36U G84U	-4.11
